On the series, the source says:
Various types of plant extracts can be included in the medical gel. As a non-limiting example, the plant extract can be aloe vera juice. […] Aloe vera juice is also bactericidal of Pseudomonas aeruginosa. Aloe vera juice can be combined with benzalkonium chloride in the medical gel. Aloe vera juice can replace a portion of the benzalkonium chloride in the medical product. […] But the concentration of benzalkonium chloride can be lowered to 0.10% when aloe vera juice is present at 10%. Advantageously, the lower concentration of benzalkonium chloride at 0.10% is non-irritating. Aloe vera juice is also a hydrating agent.

Where two headings read alike, the source gives them in different places.

Regarding benzalkonium chloride, the Skin irritation result is, setting by setting: (concentration of 0.10%) “non-irritating”; (concentration of 0.13%) “causes skin irritation”.

Values taken from patent US20220280587A1, “MEDICAL GELS CONTAINING A QUATERNARY AMMONIUM COMPOUND, PHENOXYETHANOL, ALOE VERA JUICE, AND NATURAL SPORICIDAL MOISTURIZERS” (priority 2021, published 2022).
